Experimental findings from article PMC9911399, “Two distinct binding modes provide the RNA-binding protein RbFox with extraordinary sequence specificity” are described below.

The labels stand for the following.
B1: CCAACAC (DNA:RNA)
RNA: GGGAGACCGGAAUUCAGAUUGUCCCCAACACUUAAAUCCCGUCGUAGCCACCA
DNA 1: CAATCTGAATTCCGGTCTCCC
DNA 2: TGGTGGCTACGACGGGATT
B2: ACUUUUA (DNA:RNA)
RNA: B1 RNA with C25A, A27U, A28U, C29U, A30U, C31A
DNA 1: CAATCTGAATTCCGGTCTCCC
DNA 2: TGGTGGCTACGACGGGATT
B3: ACUAGCC (DNA:RNA)
RNA: B1 RNA with C25A, A27U, C29G, A30C
DNA 1: CAATCTGAATTCCGGTCTCCC
DNA 2: TGGTGGCTACGACGGGATT
B4: CUAUGCC (DNA:RNA)
RNA: B1 RNA with C26U, A28U, C29G, A30C
DNA 1: CAATCTGAATTCCGGTCTCCC
DNA 2: TGGTGGCTACGACGGGATT
B5: GCAGGUU (DNA:RNA)
RNA: B1 RNA with C25G, A28G, C29G, A30U, C31U
DNA 1: CAATCTGAATTCCGGTCTCCC
DNA 2: TGGTGGCTACGACGGGATT
B6: CUGUUGU (DNA:RNA)
RNA: B1 RNA with C26U, A27G, A28U, C29U, A30G, C31U
DNA 1: CAATCTGAATTCCGGTCTCCC
DNA 2: TGGTGGCTACGACGGGATT
B7: CGACGUC (DNA:RNA)
RNA: B1 RNA with C26G, A28C, C29G, A30U
DNA 1: CAATCTGAATTCCGGTCTCCC
DNA 2: TGGTGGCTACGACGGGATT
B8: CACGAUC (DNA:RNA)
RNA: B1 RNA with C26A, A27C, A28G, C29A, A30U
DNA 1: CAATCTGAATTCCGGTCTCCC
DNA 2: TGGTGGCTACGACGGGATT
B9: GGUGGAU (DNA:RNA)
RNA: B1 RNA with C25G, C26G, A27U, A28G, C29G, C31U
DNA 1: CAATCTGAATTCCGGTCTCCC
DNA 2: TGGTGGCTACGACGGGATT
B10: GCCUUUC (DNA:RNA)
RNA: B1 RNA with C25G, A27C, A28U, C29U, A30U
DNA 1: CAATCTGAATTCCGGTCTCCC
DNA 2: TGGTGGCTACGACGGGATT
B11: UGCUCUC (DNA:RNA)
RNA: B1 RNA with C25U, C26G, A27C, A28U, A30U
DNA 1: CAATCTGAATTCCGGTCTCCC
DNA 2: TGGTGGCTACGACGGGATT
B12: GGAACAG (DNA:RNA)
RNA: B1 RNA with C25G, C26G, C31G
DNA 1: CAATCTGAATTCCGGTCTCCC
DNA 2: TGGTGGCTACGACGGGATT
B13: CAUUGUG (DNA:RNA)
RNA: B1 RNA with C26A, A27U, A28U, C29G, A30U, C31G
DNA 1: CAATCTGAATTCCGGTCTCCC
DNA 2: TGGTGGCTACGACGGGATT
B14: CACGUCA (DNA:RNA)
RNA: B1 RNA with C26A, A27C, A28G, C29U, A30C, C31A
DNA 1: CAATCTGAATTCCGGTCTCCC
DNA 2: TGGTGGCTACGACGGGATT
B15: UGCGCCC (DNA:RNA)
RNA: B1 RNA with C25U, C26G, A27C, A28G, A30C
DNA 1: CAATCTGAATTCCGGTCTCCC
DNA 2: TGGTGGCTACGACGGGATT
B16: CCCUAGU (DNA:RNA)
RNA: B1 RNA with A27C, A28U, C29A, A30G, C31U
DNA 1: CAATCTGAATTCCGGTCTCCC
DNA 2: TGGTGGCTACGACGGGATT
B17: GCGCGUA (DNA:RNA)
RNA: B1 RNA with C25G, A27G, A28C, C29G, A30U, C31A
DNA 1: CAATCTGAATTCCGGTCTCCC
DNA 2: TGGTGGCTACGACGGGATT
B18: UAUUCCA (DNA:RNA)
RNA: B1 RNA with C25U, C26A, A27U, A28U, A30C, C31A
DNA 1: CAATCTGAATTCCGGTCTCCC
DNA 2: TGGTGGCTACGACGGGATT
B19: AGAGUUC (DNA:RNA)
RNA: B1 RNA with C25A, C26G, A28G, C29U, A30U
DNA 1: CAATCTGAATTCCGGTCTCCC
DNA 2: TGGTGGCTACGACGGGATT
B20: CAAACAC (DNA:RNA)
RNA: B1 RNA with C26A
DNA 1: CAATCTGAATTCCGGTCTCCC
DNA 2: TGGTGGCTACGACGGGATT
B21: CGGACGU (DNA:RNA)
RNA: B1 RNA with C26G, A27G, A30G, C31U
DNA 1: CAATCTGAATTCCGGTCTCCC
DNA 2: TGGTGGCTACGACGGGATT
B22: AGCCCAU (DNA:RNA)
RNA: B1 RNA with C25A, C26G, A27C, A28C, C31U
DNA 1: CAATCTGAATTCCGGTCTCCC
DNA 2: TGGTGGCTACGACGGGATT
B23: UAGUCGG (DNA:RNA)
RNA: B1 RNA with C25U, C26A, A27G, A28U, A30G, C31G
DNA 1: CAATCTGAATTCCGGTCTCCC
DNA 2: TGGTGGCTACGACGGGATT
B24: CUACCCG (DNA:RNA)
RNA: B1 RNA with C26U, A28C, A30C, C31G
DNA 1: CAATCTGAATTCCGGTCTCCC
DNA 2: TGGTGGCTACGACGGGATT
B25: CCAACCA (DNA:RNA)
RNA: B1 RNA with A30C, C31A
DNA 1: CAATCTGAATTCCGGTCTCCC
DNA 2: TGGTGGCTACGACGGGATT
B26: GCCCAUA (DNA:RNA)
RNA: B1 RNA with C25G, A27C, A28C, C29A, A30U, C31A
DNA 1: CAATCTGAATTCCGGTCTCCC
DNA 2: TGGTGGCTACGACGGGATT
B27: UUUUCAU (DNA:RNA)
RNA: B1 RNA with C25U, C26U, A27U, A28U, C31U
DNA 1: CAATCTGAATTCCGGTCTCCC
DNA 2: TGGTGGCTACGACGGGATT
B28: GCUCUAA (DNA:RNA)
RNA: B1 RNA with C25G, A27U, A28C, C29U, C31A
DNA 1: CAATCTGAATTCCGGTCTCCC
DNA 2: TGGTGGCTACGACGGGATT
B29: AUGUUGA (DNA:RNA)
RNA: GGGAGACCGGAAUUCAGAUUGUCCAUGUUGAUUAAAUCCCGUCGUAGCCACCA
DNA 1: CAATCTGAATTCCGGTCTCCC
DNA 2: TGGTGGCTACGACGGGATT
B30: UACUGAA (DNA:RNA)
RNA: B29 RNA with A25U, U26A, G27C, U29G, G30A
DNA 1: CAATCTGAATTCCGGTCTCCC
DNA 2: TGGTGGCTACGACGGGATT
B31: UCCUACA (DNA:RNA)
RNA: B29 RNA with A25U, U26C, G27C, U29A, G30C
DNA 1: CAATCTGAATTCCGGTCTCCC
DNA 2: TGGTGGCTACGACGGGATT

Changes are numbered by the printed parent chain; changes in the protein carry UniProt numbers. The list shows a part of the results.

For the experiment, the target named is T1, RBFOX1 RRM (Homo sapiens, UniProt Q9NWB1 109-208).
T1 sequence: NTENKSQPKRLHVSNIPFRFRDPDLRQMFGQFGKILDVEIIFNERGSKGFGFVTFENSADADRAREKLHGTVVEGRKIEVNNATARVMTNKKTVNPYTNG
In words: EMSA; HiTS-Eq, 1 nM pool, 10 min; buffer printed only for the single-RNA assays: 10 mM Tris pH 7.5, 150 mM NaCl, 3.4 mM EDTA, 0.001% NP-40, 30 C. Particulars: tags: His6 N-terminal (pET28a); label: 5' 32P. The method in brief:
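Purified RbFox RRM, wild type or mutant, was incubated for 10 min in 50 µL with 1 nM of a 5′-radiolabelled RNA pool carrying 7 randomized nucleotides, whose flanks were annealed to DNA oligonucleotides, over a series of increasing protein concentrations. Unbound RNA was resolved on 8% native PAGE, cut out, reverse-transcribed, barcoded by PCR and sequenced on an Illumina HiSeq 2500. Relative association constants were derived from changes in read counts for each RNA species versus the control reaction and normalised to the cognate motif.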
Consider B1, for which the binding signal is 0.00438 KA relative to UGCAUGU.

For B2, the binding signal is 0.00147 KA relative to UGCAUGU.

In the case of B3, the binding signal was 0.00569 KA relative to UGCAUGU.

With B4, the binding signal was 0.0111 KA relative to UGCAUGU.

With B5, the binding signal was 0.0151 KA relative to UGCAUGU.

In the case of B6, the binding signal is 0.0226 KA relative to UGCAUGU.

With B7, the binding signal was 0.00509 KA relative to UGCAUGU.

B8: the binding signal is 0.00473 KA relative to UGCAUGU.

Regarding B9, the binding signal is 0.0111 KA relative to UGCAUGU.

B10: the binding signal is 0.0185 KA relative to UGCAUGU.

Turning to B11, the binding signal is 0.0211 KA relative to UGCAUGU.

For B12, the binding signal was 0.0101 KA relative to UGCAUGU.

Take B13: the binding signal is 0.0157 KA relative to UGCAUGU.

For the molecule B14, the binding signal is 0.00142 KA relative to UGCAUGU.

With B15, the binding signal was 0.00933 KA relative to UGCAUGU.

Turning to B16, the binding signal is 0.00573 KA relative to UGCAUGU.

Consider B17, for which the binding signal was 0.0146 KA relative to UGCAUGU.

Take B18: the binding signal was 0.00337 KA relative to UGCAUGU.

B19: the binding signal was 0.0124 KA relative to UGCAUGU.

Regarding B20, the binding signal was 0.000671 KA relative to UGCAUGU.

Consider B21, for which the binding signal was 0.0196 KA relative to UGCAUGU.

As to B22, the binding signal is 0.00201 KA relative to UGCAUGU.

For B23, the binding signal was 0.0122 KA relative to UGCAUGU.

As to B24, the binding signal was 0.00255 KA relative to UGCAUGU.

For the molecule B25, the binding signal was 0.00186 KA relative to UGCAUGU.

For the molecule B26, the binding signal was 0.00463 KA relative to UGCAUGU.

For the molecule B27, the binding signal was 0.0103 KA relative to UGCAUGU.

Consider B28, for which the binding signal is 0.00896 KA relative to UGCAUGU.

Regarding B29, the binding signal is 0.0231 KA relative to UGCAUGU.

Turning to B30, the binding signal was 0.0144 KA relative to UGCAUGU.

B31: the binding signal was 0.00176 KA relative to UGCAUGU.
